Measurements: PubChem BioAssay AID602310 (National Center for Advancing Translational Sciences (NCATS), 2012)
Screen size: about 410,000 compounds; about 310 (0.076%) were called active. The inconclusive results got no clear call from the source; some entries with a clear call stand among them for comparison. Calls follow the shape of the dose curve; as a rule, active = well fitted curve in the direction sought with a large enough effect; inconclusive = small, poorly fitted or top-dose-only effect; inactive = flat fitted curve, though single readings scatter. A potency beside an inconclusive call is a rough fit, not a confirmed value.

What follows are molecules tested against DNA dC->dU-editing enzyme APOBEC-3G (Homo sapiens) (UniProt Q9HC16) (assay: qHTS for Inhibitors of Vif-A3G Interactions: qHTS). Settings: HeLa A3G-eYFP + Vif (tagged APOBEC3G with the HIV-1 protein that degrades it), YFP fluorescence, overnight; series mostly up to 46.1 µM; activity, negative = active: at the top concentration.
Procedure, shortened: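 HeLa cells stably expressing Vif and C-terminally eYFP-tagged A3G, seeded overnight at 37 deg C, then exposed to compound by pintool overnight at 37 deg C. Rise in yellow fluorescence (Ex 488/Em 500-530, Acumen) marks blocked Vif-driven A3G degradation.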
% is scaled to controls: 0 for no effect and ±100 for the full control effect; potency is read from the fitted curve at half-maximal effect; tags tell the direction and shape of the fitted curve.
Also: nearly all actives have a fitted effect of over 60% in size.
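For activity, negative = active in this document: hits raise eYFP signal because A3G escapes Vif-driven loss.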

UniProt Q9HC16, sequence (Q9HC16 whole entry, looked up): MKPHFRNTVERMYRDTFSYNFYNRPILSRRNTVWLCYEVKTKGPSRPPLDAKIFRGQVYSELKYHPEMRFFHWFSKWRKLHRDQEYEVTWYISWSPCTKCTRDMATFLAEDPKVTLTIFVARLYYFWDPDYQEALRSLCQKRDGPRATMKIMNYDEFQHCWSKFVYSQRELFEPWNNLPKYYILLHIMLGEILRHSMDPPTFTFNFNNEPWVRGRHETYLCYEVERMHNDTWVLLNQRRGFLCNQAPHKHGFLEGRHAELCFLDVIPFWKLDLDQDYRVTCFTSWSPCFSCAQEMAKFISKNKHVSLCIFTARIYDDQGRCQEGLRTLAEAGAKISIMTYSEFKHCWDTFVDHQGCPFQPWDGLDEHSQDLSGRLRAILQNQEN

| SMILES | Potency | activity, negative = active |
| --- | --- | --- |
| CN1/C(=C/c2cccc[n+]2C)Sc2ccccc21 | inconclusive: 15.8 µM [inhibitor, single point] |  |
| COc1ccc(C(=O)n2cc(C(C)=O)c3ccccc32)cc1 | inconclusive: 4.47 µM [inhibitor, partial curve, poor fit] |  |
| Cc1cccc(N2CCN(C(=O)Cn3c(-c4cccs4)cc4ccccc43)CC2)c1C |  | inactive: 1.94% |
| CCOC(=O)COc1ccc(Br)cc1/C=C/c1[nH]c(=O)[nH]c(=O)c1[N+](=O)[O-] | inconclusive: 28.2 µM [inhibitor, single point] |  |
| Cc1ccc(CS(=O)(=O)c2ncc(Cl)c(C(=O)Nc3nnc(C(C)C)s3)n2)cc1 | inconclusive: 11.2 µM [inhibitor, partial curve, poor fit] |  |
| CC(=O)NC1=NN(C(C)=O)C(C)(c2ccc(Br)cc2)S1 (stereo not drawn) | inconclusive: 22.4 µM [inhibitor, single point] |  |
| Cc1cc([N+](=O)[O-])ccc1-c1ccc(/C=N/NC(=O)c2ccc(Br)o2)o1 | inconclusive: 5.01 µM [inhibitor, single point] |  |
| O=C(NCCOc1ccccc1)c1ccc2n[nH]nc2c1 |  | inactive: 0.244% |
| CC1CCCCC1NC(=O)/C(C#N)=C/C=C/c1ccccc1[N+](=O)[O-] (stereo not drawn) | inconclusive: 10 µM [inhibitor, partial curve, poor fit] |  |
| c1cn2cc(-c3ccc4c(c3)OCO4)nc2s1 |  | inactive: 0.386% |
| COc1cccc(CNc2ccc(F)c(Cl)c2)c1 |  | inactive: 2.62% |
| CCOc1ccc(NC(=S)NC(=O)/C=C/c2ccco2)cc1 | inconclusive: 22.4 µM [inhibitor, single point] |  |
| O=C(Cc1ccc(OCCc2ccccc2)cc1)NO |  | inactive: -0.134% |
| O=C(Nc1ncccn1)c1ccc([N+](=O)[O-])o1 | inconclusive: 15.8 µM [inhibitor, partial curve, poor fit] |  |
| CCOc1cc(/C=C(/C#N)C(=O)Nc2ccc(O)cc2)cc(Br)c1O | inconclusive: 12.6 µM [inhibitor, partial curve, poor fit] |  |
| C=CCNC(=S)NCC=C |  | inactive: 0.863% |
| COc1ccccc1CNC(=O)COCc1cc(-c2cccs2)on1 |  | inactive: 5.77% |
| O=C1N/C(=C\c2ccccc2)c2ccccc21 | inconclusive: 3.55 µM [inhibitor, partial curve, poor fit] |  |
| O=C1OC(Nc2ccc(F)c([N+](=O)[O-])c2)c2ccccc21 (stereo not drawn) |  | inactive: 0.0111% |
| C/C(=N\NC(=O)c1cc(-c2cccs2)nc2ccccc12)c1ccccn1 |  | inactive: -9.39% |
| COc1ccc([C@@H]2[C@H]3CN(C(C)=O)CC=C3C(C#N)=C(N)C2(C#N)C#N)c2ccccc12 | inconclusive: 28.2 µM [inhibitor, partial curve, poor fit] |  |
| CCOc1cc(/C=C/c2ccc3cccc([N+](=O)[O-])c3n2)ccc1OCC(=O)N(C)C | inconclusive: 35.5 µM [inhibitor, single point] |  |

| SMILES | Potency | activity, negative = active |
| --- | --- | --- |
| N#Cc1ccc(/C=C/C(=O)c2cccnc2)cc1 | inconclusive: 17.8 µM [inhibitor, partial curve, poor fit] |  |
| Cc1ccc(-c2cc(O)cc3sc(=O)oc23)cc1C | inconclusive: 35.5 µM [inhibitor, single point] |  |
| COc1ccc2c(c1)-c1c(ssc1=S)C(C)(C)N2 |  | inactive: 1.16% |
| COC(=O)CSc1nc2cc(OC)ccc2cc1C#N | inconclusive: 31.6 µM [inhibitor, single point] |  |
| O=C(NCCOc1ccccc1)C1Nc2ccc(C(F)(F)F)cc2C2c3ccccc3CC12 (stereo not drawn) | inconclusive: 31.6 µM [inhibitor, partial curve, poor fit] |  |
| CC1(C(=O)Nc2ccc3c(c2)OCO3)Cc2c(-c3cccc(C(N)=O)c3)ccnc2O1 (stereo not drawn) | inconclusive: 3.55 µM [inhibitor, full curve] |  |
| O=C(Nc1ccc(SC(F)F)cc1)c1cc(-c2ccncc2)nc2ccccc12 | inconclusive: 15.8 µM [inhibitor, single point] |  |
| Cc1ccc(NS(=O)(=O)c2ccc3oc(=O)c4ncn(C)c4c3c2)cc1C | inconclusive: 35.5 µM [inhibitor, single point] |  |
| Cc1ccc(S(=O)(=O)Oc2ccccc2/C=N/Nc2ccc(C(=O)O)cc2)cc1 | inconclusive: 7.08 µM [inhibitor, partial curve] |  |
| Cc1ccc(N(CCC#N)C(=O)CCl)cc1C | inconclusive: 35.5 µM [inhibitor, single point] |  |
| O/N=C(/C[n+]1ccsc1)c1ccc(I)cc1 |  | inactive: -0.106% |
| COc1ccc2sc(-c3ccc(N(C)C)cc3)c(C#Cc3cncn3C)c2c1 | inconclusive: 17.8 µM [inhibitor, single point] |  |
| CCOC(=O)c1ccc(NC(=O)NC2=NCCS2)cc1 | inconclusive: 7.08 µM [inhibitor, partial curve, poor fit] |  |
| O=C(Nc1nnc(-c2ccccc2Cl)o1)c1nc2ccccc2s1 | inconclusive: 31.6 µM [inhibitor, single point] |  |
| O=C(NCc1cccnc1)c1ccc([N+](=O)[O-])o1 | inconclusive: 15.8 µM [inhibitor, partial curve, poor fit] |  |
| Cc1ccc(N(CC(=O)N2CCN(c3ccccc3)CC2)S(=O)(=O)c2c(C)noc2C)cc1 |  | inactive: 3.74% |
| COC(=O)c1c(NC(=O)c2ccccc2N(C)S(=O)(=O)c2ccccc2)sc2c1CCCC2 | inconclusive: 2.51 µM [inhibitor, partial curve, poor fit] |  |
| CN(C)c1ccc(C=c2c3ccccc3n3c2cc(-c2ccc(Cl)cc2)[n+]3C)cc1 |  | inactive: -19.4% |
| Cc1ccc(C(=O)c2c3ccc([N+](=O)[O-])cc3[n+]([O-])n2CCC(N)=O)cc1 | inconclusive: 22.4 µM [inhibitor, single point] |  |
| COc1cc(OC)cc(C(=O)N/N=C/c2ccc(OC)c(COc3ccc(F)cc3)c2)c1 | inconclusive: 1.58 µM [inhibitor, full curve, poor fit] |  |
| COc1cccc(C2CC(c3ccccc3)=NN2S(=O)(=O)c2ccc(C)cc2)c1OC (stereo not drawn) | inconclusive: 25.1 µM [inhibitor, single point] |  |
